The supplement of paper PMC9588766
Structures can show the parent of a compound that is named as a salt. ± gives the standard deviation of the averaged measurements. In all, about 2,000 compounds were measured (“cell viability relative to DMSO control (compound alone)”: median about 0.98, lowest 2% from about 0.23 on). Some of the results follow.

system: PDC-DUC18828; test: cell viability relative to DMSO control (compound alone) (fraction); PDC-DUC18828 is a patient-derived cholangiocarcinoma cell line; higher = less growth inhibition; conditions: 1 µM; 72 h
Protocol: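 Selleck Bioactive library screen in the patient-derived FGFR2-G3BP2 fusion-positive ICC cell line PDC-DUC18828 (500 cells/well). Each compound was tested at 1 uM alone, in triplicate, for 72 h. Viability was read by CellTiter-Glo and normalised to plate DMSO controls.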

Compound	cell viability
CCOC(=O)NCCCC(=O)NCCc1ccccc1	1.03 ± 0.067
CNC(=O)c1nn(C)c2c1C(C)(C)Cc1cnc(Nc3ccc(N4CCN(C)CC4)cc3)nc1-2	0.638 ± 0.048
CC(C)(O)CC[C@@H](O)[C@](C)(O)[C@H]1CC[C@@]2(O)C3=CC(=O)[C@@H]4C[C@@H](O)[C@@H](O)C[C@]4(C)[C@H]3CC[C@]12C [20-Hydroxyecdysone]	0.93 ± 0.036
COc1cc2nc(N3CCN(C(=O)C4CCCO4)CC3)nc(N)c2cc1OC (stereo not given) [Terazosin HCl]	1.1 ± 0.034
CN1CCN(c2cccc(Nc3nc4c(-c5ccc(S(C)(=O)=O)cc5)cccn4n3)c2)CC1	0.996 ± 0.05
CN[C@@H](C)C(=O)N[C@H](C(=O)N1CCC[C@H]1C(=O)Nc1snnc1-c1ccccc1)C1CCCCC1	0.924 ± 0.035
CNS(=O)(=O)Nc1nccc(Cc2c(C)c3ccc(Oc4ncccn4)cc3oc2=O)c1F	0.849 ± 0.053
OC[C@@H](O)[C@@H](O)[C@H](O)[C@@H](O)CO [Sorbitol]	0.931 ± 0.049
CC(C)(C)c1cc(C(=O)C(C#N)=NNc2cccc(Cl)c2)no1	0.983 ± 0.034
CC(=O)OCC(=O)[C@@]1(O)CC[C@H]2[C@@H]3CCC4=CC(=O)CC[C@]4(C)[C@H]3C(=O)C[C@@]21C [Cortisone acetate]	0.906 ± 0.024
FC(F)(F)c1ccc(/C=C/c2nc(COc3ccc(CCCCn4ccnn4)cc3)co2)cc1 [Mubritinib (TAK 165)]	0.929 ± 0.045
CN(C)CCCOc1nn(Cc2ccccc2)c2ccccc12 [Benzydamine HCl]	1.08 ± 0.029
O=C1c2c(O)cc(O)cc2OC(c2ccc(O)c(O)c2)C1O (stereo not given) [Taxifolin (Dihydroquercetin)]	1.01 ± 0.036
C[C@@H]1C(=O)O[C@H]2C[C@@]34[C@H]5C[C@@H](C(C)(C)C)[C@]36[C@@H](OC(=O)[C@@H]6O)O[C@@]4(C(=O)O5)[C@]21O [Ginkgolide A]	1.04 ± 0.017
CC1=C(C(=O)OC2CCCCC2)C(c2ccc([N+](=O)[O-])cc2)C2=C(CC(C)(C)CC2=O)N1 (stereo not given)	0.943 ± 0.047
O=C(O)C(Cc1ccccc1[N+](=O)[O-])=NNc1nc(-c2ccc(Cl)c(Cl)c2)cs1 (mixture of isomers)	0.919 ± 0.028
CC(c1cc2ccccc2s1)N(O)C(N)=O (stereo not given) [Zileuton]	1.08 ± 0.04
NC(=O)c1ncn([C@@H]2O[C@H](CO)[C@@H](O)[C@H]2O)c1N [Acadesine]	0.983 ± 0.044
CN(C)CCc1c[nH]c2ccc(C[C@H]3COC(=O)N3)cc12 [Zolmitriptan]	1.06 ± 0.016
CN(C)CCC=C1c2ccccc2C=Cc2ccccc21 [Cyclobenzaprine HCl]	1.01 ± 0.037
O=C1c2cccc(O)c2C(=O)c2c(O)cc(CO)cc21 [Aloe-emodin]	1.06 ± 0.047
C[N+]1(C)CCC(=C(c2ccccc2)c2ccccc2)CC1 [Diphemanil Methylsulfate]	1.024 ± 0.0092
COc1cc(/C=C/C(=O)O)ccc1O [Ferulic Acid]	0.986 ± 0.06
NS(=O)(=O)c1cc2c(cc1Cl)NCNS2(=O)=O [Hydrochlorothiazide]	0.929 ± 0.03
O=C(NC1CCOCC1)c1ccc(-c2cc(-c3c[nH]nc3-c3ccccn3)ccn2)cc1	1.03 ± 0.058
O=C1C(=O)N(Cc2ccc(Cl)c(Cl)c2)c2ccccc21 [Apoptosis Activator 2]	0.896 ± 0.019
C/C(=N\NC(=S)N1CCC1)c1ccccn1	0.316 ± 0.018

Compound	cell viability
O=c1[nH]c(=O)n([C@H]2C[C@H](O)[C@@H](CO)O2)cc1F [Floxuridine]	0.985 ± 0.11
COc1cc(C)c(/C=C/C(C)=C/C=C/C(C)=C/C(=O)O)c(C)c1C [Acitretin]	1.04 ± 0.021
C[C@@H]1COCCN1c1cc(C2([S@](C)(=N)=O)CC2)nc(-c2cc[nH]c3nccc2-3)n1	0.934 ± 0.037
CC(C)(F)C[C@H](N[C@@H](c1ccc(-c2ccc(S(C)(=O)=O)cc2)cc1)C(F)(F)F)C(=O)NC1(C#N)CC1 [Odanacatib (MK-0822)]	1.02 ± 0.053
C#C[C@]1(OC(C)=O)CC[C@H]2[C@@H]3CCC4=C[C@@H](OC(C)=O)CC[C@@H]4[C@H]3CC[C@@]21C [Ethynodiol diacetate]	1.061 ± 0.0097
Nc1ccc(S(=O)(=O)Nc2ncccn2)cc1 [Sulfadiazine]	0.941 ± 0.037
CCCC(C)NC(=O)c1ccc(Cl)c(Cl)c1 (stereo not given)	1.01 ± 0.03
CNC1CCC(N(Cc2cccc(-c3ccncc3)c2)C(=O)c2sc3ccccc3c2Cl)CC1 (stereo not given) [Smoothened Agonist (SAG) HCl]	0.961 ± 0.027
C=CCc1cc(OC)c(O)c(C(=O)NCCO)c1 [Alibendol]	1.02 ± 0.037
CCOc1cn(-c2ccc(F)cc2C)nc1C(=O)Nc1ccc(Oc2ccnc3cc(OC)c(OC)cc23)c(F)c1	0.852 ± 0.06
C#C[C@]1(O)CC[C@H]2[C@@H]3CCC4=CC(=O)CC[C@@H]4[C@H]3CC[C@@]21C [Norethindrone]	1.05 ± 0.042
COC(=O)C1=C(C)NC(C)=C(C(=O)OC)C1c1ccccc1[N+](=O)[O-] [Nifedipine]	1.01 ± 0.024
NC(=O)c1cccc2[nH]c(-c3ccc(C4CCCN4)cc3F)nc12 (stereo not given)	1.02 ± 0.066
CC(C)NC[C@H](O)COc1ccc(CCOCC2CC2)cc1 [Levobetaxolol HCl]	1.09 ± 0.036
COc1cc2c(cc1O)CC[C@@H]1[C@@H]2CC[C@]2(C)[C@@H](O)CC[C@@H]12 [2-Methoxyestradiol (2-MeOE2)]	0.504 ± 0.0075
Nc1ccc(O)c(C(=O)O)c1 [Mesalamine]	1.02 ± 0.035
COC(=O)N1CCN(Cc2cccc(NC(=O)Nc3ccc(C)nc3)c2F)CC1	1.01 ± 0.02
O=C(O)CSc1cc(NS(=O)(=O)c2ccc(Br)cc2)c2ccccc2c1O	0.916 ± 0.08
N=c1ccn2c(n1)O[C@H]1[C@H](O)[C@@H](CO)O[C@H]12 [Cyclocytidine HCl]	0.586 ± 0.056
CNC(=O)c1ccc2cc([C@@]3(O)CCn4cncc43)ccc2c1 [TAK-700 (Orteronel)]	1.03 ± 0.026
CC(=O)Oc1cc(C(F)(F)F)ccc1C(=O)O [Triflusal]	0.898 ± 0.043
Cc1cncc(CN2CCC(=C3c4ccc(Cl)cc4CCc4cccnc43)CC2)c1 [Rupatadine Fumarate]	0.873 ± 0.033
CS(=O)(=O)c1ccc([C@@H](O)[C@@H](CO)NC(=O)C(Cl)Cl)cc1 [Thiamphenicol]	0.967 ± 0.022
CNC(=O)c1ccccc1Oc1nc(Nc2cc(OC)c(OC)c(OC)c2)ncc1Br	0.901 ± 0.031
O=c1ncn2nc(Sc3ccc(F)cc3F)ccc2c1-c1c(Cl)cccc1Cl	0.938 ± 0.011
C[C@]12C=CC(=O)C=C1CC[C@@H]1[C@@H]2[C@@H](O)C[C@@]2(C)[C@H]1CC[C@]2(O)C(=O)CO [Prednisolone]	0.946 ± 0.014
O=c1[nH]cc(F)c(=O)[nH]1 [Fluorouracil (5-Fluoracil, 5-FU)]	0.878 ± 0.018

Compound	cell viability
C[C@@H](c1ncncc1F)[C@](O)(Cn1cncn1)c1ccc(F)cc1F [Voriconazole]	1.05 ± 0.011
O=C(O)Cc1ccccc1Nc1c(Cl)cccc1Cl [Diclofenac Diethylamine]	1.03 ± 0.043
O=C(O)Cc1ccccc1Nc1c(Cl)cccc1Cl [Diclofenac Potassium]	0.973 ± 0.017
O=C(O)Cc1ccccc1Nc1c(Cl)cccc1Cl [Diclofenac Sodium]	0.976 ± 0.03
Cc1c(NC(=O)c2ccc(C(C)(C)C)cc2)cccc1-c1cn(C)c(=O)c(Nc2ccc(C(=O)N3CCOCC3)cc2)n1	0.959 ± 0.015
C[C@@H]1CC(=O)NN=C1c1ccc(NN=C(C#N)C#N)cc1 [Levosimendan]	0.899 ± 0.012
CN(C)CCCNC(=O)c1ccc(-c2cc(O)c3ncccc3c2)cc1	1.03 ± 0.033
NC1(c2ccc(-c3nc4ccn5c(=O)[nH]nc5c4cc3-c3ccccc3)cc2)CCC1	0.789 ± 0.022
CC[C@@]1(O)C(=O)OCc2c1cc1n(c2=O)Cc2cc3cc(O)ccc3nc2-1 [(S)-10-Hydroxycamptothecin]	0.0902 ± 0.0027
CC[C@H](C)n1cc(C)c2c(C(=O)NCc3c(C)cc(C)[nH]c3=O)cc(-c3ccc(N4CCNCC4)nc3)cc21	0.969 ± 0.0099
Nc1cccc(S(=O)(=O)N2CCCN(S(=O)(=O)c3ccc4c(c3)OCCO4)CC2)c1	1.05 ± 0.026
Cc1cccc(-c2[nH]c(C(C)(C)C)nc2-c2ccc3nccnc3c2)n1	1.09 ± 0.058
CN1CCN(CCCNc2ncc(Cl)c(-c3cc4c(C(=O)NC5CC5)cccc4s3)n2)CC1	0.928 ± 0.053
NC(=O)c1noc([C@H](CCCC2CCCCC2)CC(=O)NO)n1	0.97 ± 0.056
CCn1c(=O)c(-c2ccc(-c3cncs3)cc2Cl)cc2cnc(Nc3ccc(N4CCN(C)CC4)cc3)nc21	0.934 ± 0.056
Cc1cnc(Nc2ccc(N3CCN(C)CC3)cc2)nc1Nc1cccc(S(=O)(=O)NC(C)(C)C)c1	0.782 ± 0.06
OC[C@@H](O)[C@@H](O)CO [Erythritol]	0.995 ± 0.045
CC(C)CCN1c2nc(Nc3cc(F)c(O)c(F)c3)ncc2N(C)C(=O)C1C (stereo not given)	0.793 ± 0.051
O=C1NC(=O)/C(=C/c2ccc(-c3ccc(F)cc3O)o2)S1	1.03 ± 0.019
O=C(O[C@@H]1Cc2c(O)cc(O)cc2O[C@@H]1c1cc(O)c(O)c(O)c1)c1cc(O)c(O)c(O)c1 [(-)-Epigallocatechin Gallate]	1.05 ± 0.05
CC(C)C[C@H](NC(=O)CNC(=O)c1cc(Cl)ccc1Cl)B(O)O	0.0177 ± 0.0044
COC(=O)c1ccc2c(c1)NC(=O)/C2=C(\Nc1ccc(N(C)C(=O)CN2CCN(C)CC2)cc1)c1ccccc1 [Nintedanib (BIBF 1120)]	0.892 ± 0.024
N#C[C@@H]1CCCN1C(=O)CNC12CC3CC(CC(O)(C3)C1)C2 [Vildagliptin (LAF-237)]	0.886 ± 0.048
CCN(CC)CCN(Cc1ccc(-c2ccc(C(F)(F)F)cc2)cc1)C(=O)Cn1c(SCc2ccc(F)cc2)nc(=O)c2c1CCC2	0.896 ± 0.079
CCOc1ccn(-c2ccc(F)cc2)c(=O)c1C(=O)Nc1ccc(Oc2ccnc(N)c2Cl)c(F)c1	1.05 ± 0.03
Cc1nc(Nc2n[nH]c3c2CN(C(=O)N[C@H](CN(C)C)c2ccccc2)C3(C)C)c2sccc2n1	0.532 ± 0.012
